{
  "source": "PubChem BioAssay AID1768",
  "about": "(National Center for Advancing Translational Sciences (NCATS), 2009)",
  "note": "Several values for one entry are separate records, joined by “and”; a condition that tells them apart may be missing. Identical values can stand only once. Among all 270,000 compounds or so, about 620 (0.23%) were called active. The shares of active, inactive and inconclusive entries below differ from those in the screen. The call rests on the fitted dose curve; in most records, active means well fitted inhibition curve with a large enough effect in the polarisation, with a control signal flat (not every such curve was filed as active); inconclusive means small, poorly fitted or top-dose-only effect, or effect the other way, or a change in a side signal; inactive means no such curve, though single readings can be large or run the other way; the % refers to the polarisation. A potency beside an inconclusive call is a rough fit, not a confirmed value. “Side channel” marks fits to a control or component signal instead of the main read-out. Potency means the concentration at half of the fitted maximal effect; tags describe the fitted curve by direction and shape or compound fluorescence and quenching.",
  "data": [
    {"target": "Menin (Homo sapiens) (UniProt O00255)", "sequence (O00255 whole entry, looked up)": "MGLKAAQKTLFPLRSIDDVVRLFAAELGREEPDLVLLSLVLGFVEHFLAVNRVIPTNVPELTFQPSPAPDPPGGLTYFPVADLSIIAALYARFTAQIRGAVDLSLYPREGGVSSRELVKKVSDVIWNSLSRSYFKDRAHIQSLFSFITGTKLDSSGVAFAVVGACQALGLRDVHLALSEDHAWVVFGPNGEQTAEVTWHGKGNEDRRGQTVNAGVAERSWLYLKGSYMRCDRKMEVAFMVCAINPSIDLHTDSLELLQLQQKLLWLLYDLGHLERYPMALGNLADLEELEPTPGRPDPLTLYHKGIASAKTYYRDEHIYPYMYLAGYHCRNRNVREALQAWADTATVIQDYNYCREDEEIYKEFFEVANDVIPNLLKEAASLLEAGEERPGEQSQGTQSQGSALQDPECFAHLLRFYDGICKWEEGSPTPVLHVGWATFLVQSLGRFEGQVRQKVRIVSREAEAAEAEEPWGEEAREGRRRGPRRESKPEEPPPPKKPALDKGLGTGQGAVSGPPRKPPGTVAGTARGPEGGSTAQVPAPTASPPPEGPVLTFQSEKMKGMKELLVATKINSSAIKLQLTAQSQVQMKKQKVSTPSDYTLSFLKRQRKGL", "assay": "qHTS Assay for Inhibitors Targeting the Menin-MLL Interaction in MLL Related Leukemias: Competition With Texas Red Labeled MLL-derived Mutant Peptide; on FP activity change, negative = inhibition: % of control where 0% means no effect", "details": "fluorescence polarization; FP activity change, negative = inhibition: at 61.6 µM (top of the series)", "values": [
      {"smiles": "CC(C)(C)c1csc(NC(=O)c2ccc3nccnc3c2)n1", "Potency": "inconclusive: 28.2 µM [quencher, single point]"},
      {"smiles": "Cc1ccc(CSc2ncn(-c3ccccc3)n2)cc1", "Potency": "inconclusive: 31.6 µM [quencher, side channel, single point]"},
      {"smiles": "CCOC(=O)c1[nH]c(C)c(C(=O)Nc2cccc(Cl)c2C)c1C", "Potency": "inconclusive: 39.8 µM [inhibitor, single point]"},
      {"smiles": "COc1cc([N+](=O)[O-])cc2cc(C(=O)N3CCN=C3c3ccccc3)c(=O)oc12", "Potency": "inconclusive: 39.8 µM [quencher, side channel, single point]"},
      {"smiles": "COc1cc(/C=N/O)ccc1Oc1ccc([N+](=O)[O-])cc1[N+](=O)[O-]", "Potency": "inconclusive: 15.8 µM [quencher, side channel, partial curve]"},
      {"smiles": "COc1ccc(CCNC(=O)c2cc(-c3ccc(C)c(C)c3O)n[nH]2)cc1OC", "Potency": "inconclusive: 20 µM [quencher, side channel, partial curve]"},
      {"smiles": "CC(C)(C)CC(C)(C)NCC(=O)Nc1c2c(nc3ccccc13)CCC2", "Potency": "inconclusive: 1.41 µM [fluorescent, side channel, full curve, poor fit]"},
      {"smiles": "CCCNCCC(c1ccco1)c1ccccc1OC", "note": "(stereo not given)", "Potency": "inconclusive: 15.8 µM [inhibitor, single point]"},
      {"smiles": "CC(Sc1nc2cc(Cl)ccc2s1)C(=O)Nc1ccc2c(c1)OCO2", "note": "(stereo not given)", "Potency": "inconclusive: 12.6 µM [quencher, side channel, partial curve, poor fit]"},
      {"smiles": "O=C(O)c1cc(O)c2c(c1)C(=O)c1cc(O)cc(O)c1C2=O", "Potency": "inconclusive: 25.1 µM [quencher, side channel, partial curve] and inconclusive: 28.2 µM [quencher, side channel, single point]"},
      {"smiles": "COc1cc2nc(=S)n3[nH]c(COc4ccccc4C)nc3c2cc1OC", "Potency": "inconclusive: 28.2 µM [quencher, side channel, single point]"},
      {"smiles": "O=C(O)C1OC(Oc2cc3oc(-c4ccccc4)cc(=O)c3c(O)c2O)C(O)C(O)C1O", "note": "(stereo not given)", "Potency": "inconclusive: 22.4 µM [inhibitor, single point]"},
      {"smiles": "CCOc1ccc2nc(NC(=O)c3cc([N+](=O)[O-])ccc3N3CCOCC3)sc2c1", "Potency": "inconclusive: 3.16 µM [quencher, side channel, full curve]"},
      {"smiles": "C=CCOC(=O)C1=C(C)NC(SC)=C(C#N)C1c1ccc(OCC)cc1", "note": "(stereo not given)", "Potency": "inconclusive: 8.91 µM [quencher, side channel, full curve]"},
      {"smiles": "O=C(O)COc1ccccc1C(Nc1cccnc1)c1cc(Cl)c2cccnc2c1O", "note": "(stereo not given)", "Potency": "inconclusive: 31.6 µM [quencher, side channel, single point]"},
      {"smiles": "O=C(NC(=S)Nc1nc(-c2ccccc2)cs1)c1ccco1", "Potency": "inconclusive: 22.4 µM [quencher, side channel, single point]"},
      {"smiles": "CCOC(=O)C1(Cc2ccccc2)CCCN(CCCn2cccn2)C1", "note": "(stereo not given)", "Potency": "inactive"},
      {"smiles": "CCCOc1ccc(NC(=O)CC2C(=O)N(CC)C(=S)N2Cc2cccs2)cc1", "note": "(stereo not given)", "Potency": "inconclusive: 12.6 µM [quencher, side channel, partial curve]"},
      {"smiles": "Cc1ccc(NC(=O)C2C3CCCC2C3c2ccccc2)cc1C", "note": "(stereo not given)", "Potency": "inconclusive: 39.8 µM [inhibitor, single point]"},
      {"smiles": "COc1ccc(-c2cc(C(F)(F)F)nc(S(=O)(=O)CCCC(=O)Nc3cc(C)on3)n2)cc1OC", "Potency": "inactive"},
      {"smiles": "c1ccc2c(c1)OCC(CNc1ncnc3sccc13)O2", "note": "(stereo not given)", "Potency": "inconclusive: 10 µM [quencher, side channel, partial curve]"},
      {"smiles": "COc1ccc2nc(NC(=O)Cc3cccs3)sc2c1", "Potency": "inconclusive: 28.2 µM [quencher, side channel, partial curve]"},
      {"smiles": "S=c1[nH]nc(-c2ccc3ccccc3n2)n1-c1cc(Cl)cc(Cl)c1", "Potency": "inconclusive: 39.8 µM [quencher, side channel, single point]"},
      {"smiles": "COc1ccc(NC(=S)N2CCC(c3ccc(C)cc3)C2)cc1", "note": "(stereo not given)", "Potency": "inconclusive: 39.8 µM [inhibitor, single point]"},
      {"smiles": "O=C(O)c1cc(NS(=O)(=O)c2ccc(NC3CCCCC3)c([N+](=O)[O-])c2)cc(C(=O)O)c1", "Potency": "inconclusive: 10 µM [quencher, side channel, partial curve]"},
      {"smiles": "Cc1ccc(NC(=S)NNC(=S)Nc2ccc(C)cc2C)cc1", "Potency": "inconclusive: 35.5 µM [quencher, side channel, single point]"},
      {"smiles": "CCn1c(C)nc2cc(C(=O)NNC(=O)CCC3CCCCC3)ccc21", "Potency": "inconclusive: 25.1 µM [fluorescent, side channel, single point]"},
      {"smiles": "CC(C)NC(=O)c1cc(C(=O)c2cc(Cl)ccc2O)coc1=N", "Potency": "inconclusive: 5.62 µM [quencher, side channel, partial curve]"},
      {"smiles": "Cn1c(N2CCOCC2)nc(-c2ccccc2)c1-c1ccccc1", "Potency": "inactive"},
      {"smiles": "CCCCn1c2ccc(C)cc2c2nnc(SCCN3CCCCC3)nc21", "Potency": "inconclusive: 10 µM [fluorescent, side channel, partial curve]"},
      {"smiles": "Cc1ccnc(Nc2nc(-c3ccc(F)cc3)cs2)c1", "Potency": "inconclusive: 15.8 µM [quencher, side channel, partial curve]"},
      {"smiles": "CCOC(=O)c1c(-c2ccc(C)o2)csc1NC(=O)CN(C)CC(=O)Nc1ccc(C)cc1", "Potency": "inconclusive: 5.62 µM [fluorescent, side channel, partial curve]"},
      {"smiles": "O=C(Nc1nnc(-c2ccccc2SCc2ccccc2F)s1)Nc1ccccc1F", "Potency": "inconclusive: 8.91 µM [inhibitor, partial curve]"},
      {"smiles": "COC(=O)c1sc2ccccc2c1-n1cccc1C(=O)C(=O)Nc1ccc(Cl)cc1", "Potency": "inconclusive: 25.1 µM [inhibitor, single point]"},
      {"smiles": "Cc1ccc(C(=O)N(CC(=O)NC2CCCC2)c2ccccc2Cl)s1", "Potency": "inconclusive: 10 µM [fluorescent, side channel, full curve, poor fit]"},
      {"smiles": "O=S(=O)(Nc1cccc2cccnc12)c1ccc(Br)cc1", "Potency": "inconclusive: 25.1 µM [quencher, side channel, single point]"},
      {"smiles": "CCOc1ccccc1N=NC1C(=O)N(C(N)=S)N=C1C", "note": "(stereo not given)", "Potency": "inconclusive: 7.94 µM [quencher, side channel, full curve, poor fit]"},
      {"smiles": "NNc1nc2ccc(F)cc2s1", "Potency": "inconclusive: 25.1 µM [quencher, side channel, single point]"},
      {"smiles": "Cc1c(-c2ccccc2)nc(N)c(C#N)c1-c1ccco1", "Potency": "inconclusive: 20 µM [inhibitor, partial curve, poor fit]"},
      {"smiles": "C[N+](C)(C)CCCCCC(=O)/C=N/O", "Potency": "inactive"},
      {"smiles": "C=CCN1C(c2ccc(Br)cc2)=CS/C1=C(/C#N)c1nnc(N2CCOCC2)n1-c1ccccc1", "Potency": "inconclusive: 10 µM [fluorescent, side channel, partial curve]"},
      {"smiles": "CCCCc1nc(SCCN2CCOCC2)c2c(=O)n(C)c(=O)n(C)c2n1", "Potency": "inconclusive: 1 µM [inhibitor, full curve]"},
      {"smiles": "CCOc1c(OC(C)=O)ccc(/C=C2\\N=C(SCC)SC2=O)c1[N+](=O)[O-]", "Potency": "inconclusive: 35.5 µM [quencher, side channel, single point]"},
      {"smiles": "COC(=O)c1c(C)c2c(c(C)c1O)OC(=O)c1c(C)c(Cl)c(O)c(Cl)c1O2", "Potency": "inconclusive: 28.2 µM [quencher, side channel, partial curve] and inconclusive: 39.8 µM [quencher, side channel, single point]"},
      {"smiles": "Cc1ccc(-c2n[nH]c(=S)n2/N=C/c2c(C)[nH]n(-c3ccccc3)c2=O)cc1", "Potency": "inconclusive: 10 µM [quencher, side channel, partial curve]"},
      {"smiles": "COc1ccc(OC)c(-c2csc(NC(=O)Cc3cccs3)n2)c1", "Potency": "inconclusive: 14.1 µM [quencher, side channel, partial curve]"},
      {"smiles": "COc1ccc(NC(=O)c2cccc(-c3ccc(O)cc3)c2)cn1", "Potency": "inconclusive: 11.2 µM [quencher, side channel, single point]"},
      {"smiles": "CC(C)(C)C1CCC(=NOC(=O)c2ccc(F)cc2)CC1", "note": "(stereo not given)", "Potency": "inconclusive: 2.82 µM [fluorescent, side channel, full curve, poor fit]"},
      {"smiles": "CN(C(=O)C1CCOC1)c1nnc(-c2ccccn2)s1", "note": "(stereo not given)", "Potency": "inactive"},
      {"smiles": "Cc1ccc(NC(=O)c2ccccc2NS(=O)(=O)c2ccc(F)cc2)cc1S(=O)(=O)N1CCCCC1", "Potency": "inconclusive: 3.55 µM [quencher, side channel, partial curve]"},
      {"smiles": "Cc1ccc(Nc2nc(-c3ccc(O)c(O)c3)cs2)nc1", "Potency": "inconclusive: 15.8 µM [quencher, side channel, partial curve]"},
      {"smiles": "O=C1C(=O)N(c2ccccn2)C(c2ccc(F)cc2)/C1=C(/O)c1ccc(Br)cc1", "note": "(stereo not given)", "Potency": "inconclusive: 35.5 µM [quencher, side channel, single point]"},
      {"smiles": "COc1cccc(OCCCN2CCN(S(=O)(=O)c3ccc(NC(C)=O)cc3)CC2)c1", "Potency": "inconclusive: 14.1 µM [quencher, side channel, partial curve]"},
      {"smiles": "COc1ccc(OC)c(S(=O)(=O)NC(N)=NCCc2ccccc2OC)c1", "Potency": "inconclusive: 20 µM [fluorescent, side channel, single point]"},
      {"smiles": "Cc1cc2c(c(=O)n1Cc1ccccc1)C1O[C@](c3ccsc3)(Cc3ccccc31)O2", "FP activity change, negative = inhibition": "inactive: 22% [at 11.7 µM]"}
    ]}
  ]
}
